We go through 20 molecules from paper PMC9911399, “Two distinct binding modes provide the RNA-binding protein RbFox with extraordinary sequence specificity”.

Numbering of substitutions follows the chain as printed; changes in the protein carry UniProt numbers. Some of the results follow.

The chains are these.
T1: RBFOX1 RRM (Homo sapiens, UniProt Q9NWB1 109-208)
T1 sequence: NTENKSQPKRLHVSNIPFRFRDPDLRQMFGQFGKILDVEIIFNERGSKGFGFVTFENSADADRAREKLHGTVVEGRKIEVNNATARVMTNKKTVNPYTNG

B1: UAUGACC (DNA:RNA)
RNA: GGGAGACCGGAAUUCAGAUUGUCCUAUGACCUUAAAUCCCGUCGUAGCCACCA
DNA 1: CAATCTGAATTCCGGTCTCCC
DNA 2: TGGTGGCTACGACGGGATT
B2: UUUGGGA (DNA:RNA)
RNA: B1 RNA with A26U, A29G, C30G, C31A
DNA 1: CAATCTGAATTCCGGTCTCCC
DNA 2: TGGTGGCTACGACGGGATT
B3: GCCAGUG (DNA:RNA)
RNA: GGGAGACCGGAAUUCAGAUUGUCCGCCAGUGUUAAAUCCCGUCGUAGCCACCA
DNA 1: CAATCTGAATTCCGGTCTCCC
DNA 2: TGGTGGCTACGACGGGATT
B4: CCAGUUA (DNA:RNA)
RNA: B3 RNA with G25C, C27A, A28G, G29U, G31A
DNA 1: CAATCTGAATTCCGGTCTCCC
DNA 2: TGGTGGCTACGACGGGATT
B5: UUGGGAU (DNA:RNA)
RNA: B1 RNA with A26U, U27G, A29G, C30A, C31U
DNA 1: CAATCTGAATTCCGGTCTCCC
DNA 2: TGGTGGCTACGACGGGATT
B6: CGGGACG (DNA:RNA)
RNA: B1 RNA with U25C, A26G, U27G, C31G
DNA 1: CAATCTGAATTCCGGTCTCCC
DNA 2: TGGTGGCTACGACGGGATT
B7: GACCUGU (DNA:RNA)
RNA: B3 RNA with C26A, A28C, G29U, U30G, G31U
DNA 1: CAATCTGAATTCCGGTCTCCC
DNA 2: TGGTGGCTACGACGGGATT
B8: CGGUGCC (DNA:RNA)
RNA: B1 RNA with U25C, A26G, U27G, G28U, A29G
DNA 1: CAATCTGAATTCCGGTCTCCC
DNA 2: TGGTGGCTACGACGGGATT
B9: UCAGGCC (DNA:RNA)
RNA: B1 RNA with A26C, U27A, A29G
DNA 1: CAATCTGAATTCCGGTCTCCC
DNA 2: TGGTGGCTACGACGGGATT
B10: UGUUCUA (DNA:RNA)
RNA: B1 RNA with A26G, G28U, A29C, C30U, C31A
DNA 1: CAATCTGAATTCCGGTCTCCC
DNA 2: TGGTGGCTACGACGGGATT
B11: UCGGCCG (DNA:RNA)
RNA: B1 RNA with A26C, U27G, A29C, C31G
DNA 1: CAATCTGAATTCCGGTCTCCC
DNA 2: TGGTGGCTACGACGGGATT
B12: GGCUGAG (DNA:RNA)
RNA: B3 RNA with C26G, A28U, U30A
DNA 1: CAATCTGAATTCCGGTCTCCC
DNA 2: TGGTGGCTACGACGGGATT
B13: GUUGUUG (DNA:RNA)
RNA: B3 RNA with C26U, C27U, A28G, G29U
DNA 1: CAATCTGAATTCCGGTCTCCC
DNA 2: TGGTGGCTACGACGGGATT
B14: CCGCGCU (DNA:RNA)
RNA: B3 RNA with G25C, C27G, A28C, U30C, G31U
DNA 1: CAATCTGAATTCCGGTCTCCC
DNA 2: TGGTGGCTACGACGGGATT
B15: GAUUCGU (DNA:RNA)
RNA: B1 RNA with U25G, G28U, A29C, C30G, C31U
DNA 1: CAATCTGAATTCCGGTCTCCC
DNA 2: TGGTGGCTACGACGGGATT
B16: UGAAUGC (DNA:RNA)
RNA: B1 RNA with A26G, U27A, G28A, A29U, C30G
DNA 1: CAATCTGAATTCCGGTCTCCC
DNA 2: TGGTGGCTACGACGGGATT
B17: AGGAGCA (DNA:RNA)
RNA: B3 RNA with G25A, C26G, C27G, U30C, G31A
DNA 1: CAATCTGAATTCCGGTCTCCC
DNA 2: TGGTGGCTACGACGGGATT
B18: ACACGAG (DNA:RNA)
RNA: B3 RNA with G25A, C27A, A28C, U30A
DNA 1: CAATCTGAATTCCGGTCTCCC
DNA 2: TGGTGGCTACGACGGGATT
B19: AAGGUCC (DNA:RNA)
RNA: B1 RNA with U25A, U27G, A29U
DNA 1: CAATCTGAATTCCGGTCTCCC
DNA 2: TGGTGGCTACGACGGGATT
B20: ACCUUCA (DNA:RNA)
RNA: B3 RNA with G25A, A28U, G29U, U30C, G31A
DNA 1: CAATCTGAATTCCGGTCTCCC
DNA 2: TGGTGGCTACGACGGGATT

The target in the test is T1, RBFOX1 RRM. Put plainly: EMSA; HiTS-Eq, 1 nM pool, 10 min; buffer printed only for the single-RNA assays: 10 mM Tris pH 7.5, 150 mM NaCl, 3.4 mM EDTA, 0.001% NP-40, 30 C. Particulars: tags: His6 N-terminal (pET28a); label: 5' 32P. In outline: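 Purified wild-type or mutant RbFox RRM at increasing concentrations was equilibrated with 1 nM of 5′-radiolabelled RNA carrying 7 randomized nucleotides for 10 min in 50 µL. Unbound RNA was separated by 8% native PAGE and sequenced. Relative association constants came from read-count changes of each RNA species compared with the control reaction, normalised to the cognate motif.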
A general note: In EMSA bound probe runs differently from free probe, usually more slowly.
B1: the binding signal was 0.00466 KA relative to UGCAUGU. The result for B2 reads 0.003 KA relative to UGCAUGU.

With B3, the binding signal was 0.0161 KA relative to UGCAUGU. The result for B4 reads 0.00482 KA relative to UGCAUGU; that for B5, 0.0112 KA relative to UGCAUGU; that for B6, 0.0184 KA relative to UGCAUGU. The result for B7 reads 0.015 KA relative to UGCAUGU; that for B8, 0.0119 KA relative to UGCAUGU; that for B9, 0.0149 KA relative to UGCAUGU. The result for B10 reads 0.0171 KA relative to UGCAUGU; that for B11, 0.017 KA relative to UGCAUGU; that for B12, 0.0207 KA relative to UGCAUGU. For the molecule B13, the binding signal is 0.0233 KA relative to UGCAUGU.

In the case of B14, the binding signal was 0.0117 KA relative to UGCAUGU. The same measure for B15: 0.0162 KA relative to UGCAUGU; for B16: 0.0399 KA relative to UGCAUGU; for B17: 0.0164 KA relative to UGCAUGU. The result for B18 reads 0.00452 KA relative to UGCAUGU. As to B19, the binding signal was 0.0113 KA relative to UGCAUGU.

Turning to B20, the binding signal was 0.00186 KA relative to UGCAUGU.
